According to US5663295A, “Opioid peptides” (Biomeasure Inc., priority 1994, dated 1997):
At least one peptide structure holds a part that was inferred or is arguable (an end, a ring closure or a residue). Square brackets hold non-standard residues; d marks the D form. Peptide text beside a SMILES is read from it. * marks the point of attachment. Gly(NCH2CH2Ph) = O=C(O)CNCCc1ccccc1; X1 = CSCC[C@@H](CO)N*

How the values were obtained:
μ receptor = assay: In vitro receptor binding, μ receptor, radioligand DAGO; parameters: species or system guinea-pig or rat; conditions: forebrain membranes, 25° C., 60 min
Experimental: (§1) The following procedure was used to determine the ability of various opioid peptides to inhibit binding at opioid receptors. Crude membranes were prepared by homogenization of guinea-pig or rat forebrain samples in 20 ml of ice-cold 50 mM Tris-HCl with a Brinkman Polytron (setting 6, 15 sec.). Buffer was added to obtain a final volume of 40 ml, and the homogenate centrifuged in a Sorval SS-34 rotor at 39,000 g for 10 min. at 0°-4° C. The resulting supernatant was decanted and discarded. The pellet was rehomogenized in ice-cold buffer, pre-incubated at 37° C. for 45 min., diluted, and centrifuged as before. The final pellet was resuspended in 50 mM Tris HCl and held on ice for the receptor binding assay.
(§2) Aliquots of the washed membrane preparation (described above) were incubated in 50 mM Tris HCl at a total volume of 2.0 ml at 25° C. with an opioid receptor ligand (see below) and various concentrations of the unlabeled test compounds. Mu and kappa receptor assays were incubated for 60 minutes. Delta receptor assays were incubated for 40 minutes. At the end of the incubation periods, the assays were terminated by rapid filtration though Whatman GF/B glass fiber filters, and the bound radioactivity trapped on the filters counted by liquid scintillation spectrometry. For each of the three receptor subtypes, specific binding was calculated as the total radioligand bound minus that bound in the presence of 1000 nM levallorphan.
(§3) Three radiolabeled opioid receptor ligands, DAGO, DPPE, and U69,593, were used in μ receptor, 6 receptor and κ receptor assays, respectively. The structures of the ligands are as follows.
DAGO: Tyr-D-Met-Gly-Me-Phe-NH-CH2 -CH2 -OH;
(§4) Inhibition constants ("Ki") were calculated from the equation Ki-IC50 /(1+L/Kd), where L is the radioligand concentration and Kd is the equilibrium dissociation constant for the radioligand. The IC50 was derived from the inhibition data by linear least squares regression of log (B/Bt-B) versus log I, where I is the test compound concentration, Bt is the total amount of radioligand specifically bound, and B is the amount of specific binding in the presence of a given concentration of the unlabeled peptide. The IC50 is the antilog of log I, when the expression, log (B/Bt-B) equals zero.

δ receptor = assay: In vitro receptor binding, δ receptor, radioligand DPPE; parameters: species or system guinea-pig or rat; conditions: forebrain membranes, 25° C., 40 min
Experimental: as §1, §2, §3
DPPE: Tyr-D-Peniciliamine-Gly-Phe-D-Peniciliamine (cyclized); and
as §4

κ receptor = assay: In vitro receptor binding, κ receptor, radioligand U69,593; parameters: species or system guinea-pig or rat; conditions: forebrain membranes, 25° C., 60 min
Experimental: as §1, §2, §3
U69,953: (5,7,8)-(-)-N-methyl-N-(7-(1-pyrrolidinyl)-1-oxaspiro-(4,5)dec-8-yl)-benzeneacetamide.
as §4

Mu Opiate Receptors = Mu Opiate Receptors (Rattus norvegicus, UniProt P33535); assay: Effect of sodium ion on binding to mu opiate receptors in vitro; parameters: species or system guinea-pig or rat; conditions: Ki ratio without and with 100 mM NaCl
Chain of Mu Opiate Receptors (P33535 whole entry): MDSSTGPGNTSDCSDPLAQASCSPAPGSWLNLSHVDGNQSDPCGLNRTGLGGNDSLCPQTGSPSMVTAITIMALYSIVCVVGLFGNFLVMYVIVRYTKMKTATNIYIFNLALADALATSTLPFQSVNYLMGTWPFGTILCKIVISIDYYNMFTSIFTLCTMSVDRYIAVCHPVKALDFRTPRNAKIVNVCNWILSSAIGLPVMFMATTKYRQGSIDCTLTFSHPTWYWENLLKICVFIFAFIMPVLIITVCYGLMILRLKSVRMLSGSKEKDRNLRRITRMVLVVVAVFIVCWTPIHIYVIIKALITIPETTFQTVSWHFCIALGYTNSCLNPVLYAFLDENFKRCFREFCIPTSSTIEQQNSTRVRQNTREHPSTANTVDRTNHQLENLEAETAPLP

B16-F10 melanomas = assay: 6-day Subrenal Capsule Assay (SRCA), B16-F10 melanoma growth; format: in vivo, BALB/c athymic nude mice; conditions: for growth of B16-F10 melanomas in vivo (in words): 50 μg s.c. twice a day on days 1-5, SRCA; for Change In Tumor Sixe (omu) / % T/C: B-16 melanoma; for Change In Tumor Sixe (omu): 50 μg peptide s.c. twice a day on days 1-5, change from day 0 to day 6; for % T/C: omu experimental/omu control, day 6
Human NSLC A549 = assay: Subcutaneous tumor assay, human non-small cell lung cancer A549 xenografts; format: in vivo, athymic nude mice
Experimental: Table 5 compares the antitumor activity of an opioid BIM-38009 versus methadone. A subcutaneous tumor assay was used in which xenografts of the human non-small cell lung cancer were implanted s.c. in athymic nude mice. Test compounds were administered s.c. or i.p., twice daily, from day 4 post tumor implantation to day 35. The results are reported as means±s.e.m. on 8 animals per group. For structure of BIM-38009, see above.

Q: How did the Ki (μ receptor) turn out when `CC(C)C[C@H](NC[C@H](Cc1ccccc1)NC(=O)CNC(=O)[C@@H](CCCNC(=N)N)NC(=O)[C@@H](N)Cc1ccc(O)cc1)C(N)=O` [BIM-38013, tyrosyl-D-arginyl-glycyl-phenylalanyl-.psi.-(CH2 NH)-leucine amide] was run?
A: 0.00401 ± 0.00048 µM

Q: And the Ki (δ receptor)?
A: 0.162 µM

Q: And the Ki (κ receptor)?
A: 0.192 µM

Q: Which results are given for `CSCC[C@@H](CO)NC(=O)CN(CCc1ccccc1)C(=O)CNC(=O)[C@@H](C)NC(=O)[C@@H](N)Cc1ccc(O)cc1` [BIM-38040, tyrosyl-D-alanyl-glycyl-PEG methioninol] (H-Y[dA]G[Gly(NCH2CH2Ph)]-X1)?
A: Ki (μ receptor): 0.00397 ± 0.00067 µM; Ki (δ receptor): 1.44 µM; Ki (κ receptor): 1.41 µM

Q: What does the source list for `CCNC(=O)[C@H](Cc1ccccc1)NCCNC(=O)[C@@H](C)NC(=O)[C@@H](N)Cc1ccc(O)cc1` [BIM-38023, tyrosyl-D-alanyl-glycyl-.psi.(CH2 NH)-phenylalanine ethylamide]?
A: Ki (μ receptor): 0.00473 ± 0.00155 µM; Ki (δ receptor): 0.414 µM; Ki (κ receptor): 5.2 µM

Q: For `CSCC[C@H](NC(=O)CN(CCc1ccccc1)C(=O)CNC(=O)[C@@H](C)NC(=O)[C@@H](N)Cc1ccc(O)cc1)C(N)=O` [BIM-38039, tyrosyl-D-alanyl-glycyl-PEG-methionine amide] (H-Y[dA]G[Gly(NCH2CH2Ph)]M-NH2), which Ki (μ receptor) is on record?
A: 0.00148 ± 0.00024 µM

Q: What about the Ki (δ receptor) of the same compound?
A: 0.297 µM

Q: And the Ki (κ receptor)?
A: 3.76 µM

Q: For `C[C@@H](NC(=O)[C@@H](N)Cc1ccc(O)cc1)C(=O)NCC(=O)N[C@@H](CC1CCCCC1)[C@@H](O)CC(N)=O` [BIM-38012, tyrosyl-D-alanyl-glycyl-ACHPA amide], which Ki (μ receptor) is on record?
A: 0.00257 ± 0.0003 µM

Q: What about the Ki (δ receptor) of the same compound?
A: 0.54 µM

Q: What about the Ki (κ receptor) of the same compound?
A: 0.369 µM

Q: For `N=C(N)NCCC[C@@H](NC(=O)[C@@H](N)Cc1ccc(O)cc1)C(=O)NCC(=O)N[C@H](CCC(N)=O)Cc1ccccc1` [BIM-38052, tyrosyl-D-arginyl-glycyl-APP amide], which Ki (μ receptor) is on record?
A: 0.00019 ± 3e-05 µM

Q: What about the Ki (δ receptor) of the same compound?
A: 0.0272 µM

Q: What about the Ki (κ receptor) of the same compound?
A: 0.242 µM

Q: What does the source list for `C[C@@H](NC(=O)[C@@H](N)Cc1ccc(O)cc1)C(=O)NCC(=O)N[C@@H](Cc1ccccc1)[C@@H](O)CC(N)=O` [BIM-38007, tyrosyl-D-alanyl-glycyl-AHPPA amide]?
A: Ki (μ receptor): 0.00136 ± 0.00028 µM; Ki (δ receptor): 0.13 µM; -NaCl/+NaCl (ratio of Ki) (Mu Opiate Receptors): 3.3; growth of B16-F10 melanomas in vivo (in words) (B16-F10 melanomas): inhibited the growth of B16-F10 melanomas; Change In Tumor Sixe (omu) (B16-F10 melanomas): 18.1 ± 2.0 omu; % T/C (B16-F10 melanomas): 85%; Ki (κ receptor): 0.525 µM

Q: With `N=C(N)NCCC[C@@H](NC(=O)[C@@H](N)Cc1ccc(O)cc1)C(=O)NCC(=O)N(CCc1ccccc1)CC(N)=O` [BIM-38020, tyrosyl-D-arginyl-glycyl-PEG amide] (H-Y[dR]G[Gly(NCH2CH2Ph)]-NH2) as the compound, how does the Ki (μ receptor) read?
A: 0.00118 ± 9e-05 µM

Q: And the Ki (δ receptor)?
A: 1.01 µM

Q: And the Ki (κ receptor)?
A: 0.32 µM

Q: With `CCCNC(=O)[C@H](Cc1ccccc1)NCCNC(=O)[C@@H](C)NC(=O)[C@@H](N)Cc1ccc(O)cc1` [BIM-38026, tyrosyl-D-alanyl-glycyl-.psi.(CH2 NH)-phenylalanine propylamide] as the compound, how does the Ki (μ receptor) read?
A: 0.00427 ± 0.00046 µM

Q: And the Ki (δ receptor)?
A: 0.225 µM

Q: And the Ki (κ receptor)?
A: 2.75 µM

Q: Which results are given for `C[C@@H](NC(=O)[C@@H](N)Cc1ccc(O)cc1)C(=O)NCC(=O)N(CCc1ccccc1)CC(N)=O` [BIM-38009, tyrosyl-D-alanyl-glycyl-PEG amide] (H-Y[dA]G[Gly(NCH2CH2Ph)]-NH2)?
A: Ki (μ receptor): 0.00292 ± 0.00069 µM; Ki (δ receptor): 14.5 µM; -NaCl/+NaCl (ratio of Ki) (Mu Opiate Receptors): 9.9; growth of B16-F10 melanomas in vivo (in words) (B16-F10 melanomas): inhibited the growth of B16-F10 melanomas; Change In Tumor Sixe (omu) (B16-F10 melanomas): 14.7 ± 3.1 omu; % T/C (B16-F10 melanomas): 69%; Tumor Weight (mg) (Day 34) (Human NSLC A549; A549 xenograft s.c., treatment days 4-35, mean ± s.e.m., 8 animals per group): 134 ± 36 mg; & T/C (Human NSLC A549; A549 xenograft, tumor weight Day 34, treated versus control): 44; Ki (κ receptor): 3.26 µM

Q: With `C[C@@H](NC(=O)[C@@H](N)Cc1ccc(O)cc1)C(=O)NCC(=O)N[C@H](CCC(N)=O)Cc1ccccc1` [BIM-38031, tyrosyl-D-alanyl-glycyl-App amide] as the compound, how does the Ki (μ receptor) read?
A: 0.00065 ± 5e-05 µM

Q: And the Ki (δ receptor)?
A: 0.0126 µM

Q: What about the Ki (κ receptor) of the same compound?
A: 0.205 µM
